The other results are listed elsewhere or left out.
The compounds below were run on T1, C. trachomatis L2/434/Bu expressing GFP (CTL2-GFP). Conditions: total inclusion area; 28.5 h, 10 µM; inhibitor.
T1 construct: L2/434/Bu GFP intracellular growth in HeLa cells
Set-up: species or system HeLa; C. trachomatis total inclusion area by high-content imaging, normalised to DMSO
Outline: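 Following bulk GFP and resorufin fluorescence reads, infected cells were fixed, Hoechst-stained and imaged on a high-content platform. Inclusion total area and number per well served as growth proxies; nuclei counts indicated host viability. MICs were derived as for the fluorescence assay.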

| Compound | % of control remaining |
| --- | --- |
| Fc1ccc(-c2cncc(Nc3ccc4c(c3)OC(F)(F)C(F)(F)O4)n2)c(F)c1 [CBK065692] | 102.398 |
| CNC(=O)CSc1nnc2[nH]c(=O)c(C)c(C)n12 [CBK287687] | 70.7922 |
| Cc1cc(C)c(S(=O)(=O)NCCSCCC(=O)O)c(C)c1 [CBK013358] | 89.6625 |
| COc1ccc(CCNC(=O)CN2CCCC2c2cnn(C)c2)cc1 (stereo not drawn) [CBK305371] | 75.3394 |
| COCc1nc2n(n1)CC(NC(C)C(C)OCc1ccccc1)CC2 (stereo not drawn) [CBK304724] | 74.8908 |
| Cc1ccc2c(C(=O)Nc3sc4c(c3C(N)=O)CCCCC4)cc(-c3ccccn3)nc2c1C [CBK267749] | 113.5 |
| COC(=O)c1ccc(CC(C)C)nc1SC1=NCCCN1 [CBK005294C] | 95.8243 |
| CCn1c(=O)n(CC(=O)N(C)C2CCCCC2)c2cccnc21 [CBK283786] | 85.4336 |
| Cc1noc(C)c1C(=O)N[C@H]1CO[C@H]2[C@@H]1OC[C@H]2OCc1ccccc1 [CBK289458] | 91.6122 |
| Cc1ccc(S(N)(=O)=O)cc1C(=O)NC(C)CCc1ccccc1 (stereo not drawn) [CBK296671] | 62.3022 |
| O=C(c1cccnc1)N1CCN(C(=O)c2ccco2)CC1 [CBK072684] | 87.8407 |
| OC(CN1CCC(O)(c2ccccc2F)CC1)c1ccccc1 (stereo not drawn) [CBK282490] | 80.7222 |
| CC(C)(C)OC(=O)NC1CCN(C(=O)Nc2ccc(OCc3ccccc3)cc2)CC1 [CBK086602] | 71.14 |
| Cc1cc(NC(=O)CN2CCN(Cc3ccccc3C#N)CC2)no1 [CBK305644] | 101.445 |
| Cn1cccc1C(=O)N[C@H]1C[C@H]2C(=O)Nc3cc(Cl)ccc3C(=O)N2C1 [CBK289364] | 97.4164 |
| Clc1ccc(-n2c(COc3cccc4cccnc34)nnc2SCc2ccccc2)cc1 [CBK268502] | 110.421 |
| CCCc1n[nH]c(C(C)C)c1C(=O)OCC [CBK115724] | 91.525 |
| N#Cc1cccc(Cn2cc(NC(=O)NCCc3cccs3)cn2)c1 [CBK043824] | 87.9469 |
| CCOc1ccc(N(CCC#N)C(=O)Cn2nc(C(=O)O)c3ccccc3c2=O)cc1 [CBK297502] | 97.6141 |
| CCN(CC)C(=O)CN1CCC(Oc2nccnc2OCc2cc(C)on2)CC1 [CBK082959T] | 106.239 |
| CCOC(=O)N/N=C(/C)c1ccc(Br)s1 [CBK019480] | 110.894 |

| Compound | % of control remaining |
| --- | --- |
| O=C(O)CCC(=O)Nc1ccc(C(=O)O)cc1 [CBK260952] | 103.74 |
| CN(CCc1cn[nH]c1)C(=O)CCc1ccc(Cl)cc1 [CBK283183] | 77.2447 |
| O=C1S/C(=C\c2ccc(F)c(Br)c2)C(=O)N1c1cccc(Cl)c1 [CBK095450] | 91.3447 |
| NC(=O)C1(Cc2cccc(-c3cccs3)c2)CCN(C(=O)Cc2cccc(F)c2)CC1 [CBK285783] | 104.265 |
| CCOC(=O)c1cnc2c(C)c(Cl)ccc2c1NCCCN1CCOCC1 [CBK265296] | 84.8044 |
| Cc1nc2c(C(=O)NCCC3OCCO3)cnn2c(C)c1Cc1cccnc1 [CBK162159] | 39.6142 |
| COc1ncc(-c2nccnc2OCc2ccccc2)c(OC)n1 [CBK106748] | 92.0763 |
| COc1c(C(=O)O)cc(C)c2c1CCC2C (stereo not drawn) [CBK013617] | 95.9315 |
| CC(C)C(=O)N1C2CCC1Cn1c(nc3ccccc3c1=O)C2 (stereo not drawn) [CBK284450] | 95.6954 |
| Cc1nc(NS(=O)(=O)c2cc(F)c(Br)cc2F)sc1C(=O)O [CBK045556] | 98.1184 |
| CC(C)(C)C(=O)CN1CCC(C(=O)NC(c2ccccc2)c2ccco2)CC1 (stereo not drawn) [CBK148298] | 118.873 |
| Cc1ccccc1NC(=O)CC(C(=O)O)N(C)C (stereo not drawn) [CBK266924] | 97.0204 |
| Clc1ccc(-n2ncc(-c3cccnc3)n2)cc1Cl [CBK112814] | 91.9765 |
| O=C(O)CCC(=O)NCc1ccc(-c2nccnc2NS(=O)(=O)c2ccc(O)cc2)cc1 [CBK073843] | 81.8066 |
| COC(=O)c1ccccc1NC(=O)CSc1nc(C)cc(C)n1 [CBK263818] | 98.0114 |
| O=C(C1CCCC1)N1CCC[C@@H]1Cn1c(=O)oc2ccccc21 [CBK284539] | 118.436 |
| COc1nccnc1OC1CCN(Cc2ccccc2)CC1 [CBK084238] | 100.492 |
| COc1ccc(OC)c(C2CC(c3ccc(NS(C)(=O)=O)cc3)=NN2C(=O)CCC(=O)O)c1 (stereo not drawn) [CBK297781] | 90.1557 |
| CN(C)S(=O)(=O)c1ccc(C(=O)Nc2ccc(-c3ccccc3)cc2)cc1 [CBK264978] | 104.673 |
| O=C(CSc1nnc(CN2CCOCC2)n1-c1ccc(Cl)cc1)N1CCc2ccccc21 [CBK269008] | 69.3638 |
| CN(C)S(=O)(=O)N(CC(=O)NCc1ccncc1)c1ccccc1 [CBK268322] | 117.124 |

| Compound | % of control remaining |
| --- | --- |
| Cn1nnc2c(N3CCN(C(=O)c4ccccc4)CC3)ncnc21 [CBK287830] | 125.337 |
| CCOC(=O)C(C)n1nc(C)n2c(cc3sccc32)c1=O (stereo not drawn) [CBK283333] | 90.6282 |
| CCn1cc(CC(=O)Nc2cccc(-n3cnnc3)c2)c2ccccc21 [CBK282669] | 139.536 |
| CN(C)CCNC(=O)c1cccc(-c2cncc(N3CCN(c4ccncc4)CC3)n2)c1 [CBK065391] | 105.626 |
| CN(C)CC1CCCCN1C(=O)C1C2CCCCC21 (stereo not drawn) [CBK282087] | 118.946 |
| CCN1CC2(CCN(CC3CC3)CC2)c2ccccc21 [CBK136987] | 65.4636 |
| CCc1nnc(NS(=O)(=O)c2cc(C(=O)O)c(Cl)cc2F)s1 [CBK062195] | 110.353 |
| O=C(NCC1(c2ccccc2F)CCOCC1)[C@@H]1C[C@@H]2C=C[C@H]1C2 [CBK281552] | 102.371 |
| CC(C)n1ccnc1CN1CCn2nc(CNc3cnccn3)cc2C1 [CBK306902] | 62.4012 |
| COCCNC(=O)c1cc(-c2ccccc2C)cnc1NS(C)(=O)=O [CBK106422] | 101.542 |
| Cc1cnc2c(C(=O)Nc3cccc(CCc4ccncc4)c3)cnn2c1 [CBK285558] | 101.464 |
| CC(NC(=O)Cn1c(=O)oc2ccc(Cl)cc21)C1CC2CCC1C2 (stereo not drawn) [CBK281636] | 78.9276 |
| Cn1nccc1C(=O)C1CCN(C(=O)c2cc3c(s2)CCC3)CC1 [CBK284427] | 85.4444 |
| Cc1ccc(NC(=O)c2ccc(-c3ccccc3)cc2)c(OC(=O)c2ccc(-c3ccccc3)cc2)c1 [CBK261347] | 93.2873 |
| OCCOc1ccccc1-c1cc[nH]n1 [CBK001973] | 59.8007 |
| CN1CCC(C(=O)NC2Cc3ccccc3C2)CC1 [CBK200263] | 116.425 |
| O/N=C/c1c[nH]c2ccccc12 [CBK168630] | 93.5347 |
| CC(=O)CCC(=O)N1CCN(C(=O)c2ccc(-c3ccc(S(C)(=O)=O)cc3)cn2)CC1 [CBK160484] | 103.039 |
| CN1CCCc2ccc(S(=O)(=O)Nc3ccc4nncn4c3)cc21 [CBK306435] | 36.2863 |
| O=C(c1ccccc1Nc1cccc(C(F)(F)F)c1)N1CCN(c2ccccn2)CC1 [CBK012634] | 66.4794 |
| O=C(O)CN(c1cccc([N+](=O)[O-])c1)S(=O)(=O)c1ccccc1 [CBK262684] | 102.108 |

| Compound | % of control remaining |
| --- | --- |
| O=C1NC2(CCN(C(=O)C(F)(F)F)CC2)Oc2ccccc21 [CBK283906] | 93.8471 |
| Cc1cnc(C(=O)OCc2cc(=O)n3ccsc3n2)cn1 [CBK296978] | 111.089 |
| CCOC(=O)COc1ccc2c(=O)c(Oc3ccc([N+](=O)[O-])cc3)c(C)oc2c1C [CBK266092] | 95.4996 |
| CC(=O)N1CCC(O)(Cn2c(C3CC3)cc3cccnc32)CC1 [CBK283082] | 95.0223 |
| O=C(CCn1cnc2ccccc2c1=O)Nc1ccccc1C(F)(F)F [CBK270056] | 92.7512 |
| CCc1[nH]ncc1C(=O)N1CCN(c2nccc(OC)n2)CC1 [CBK304915] | 52.8551 |
| CCOC(=O)c1cnc2ccc(OC)cc2c1Nc1ccc(OC)cc1 [CBK095337] | 69.1584 |
| Cc1nnc(SCC(=O)NCc2c(C)c(Cl)cc(C(C)C)c2O)s1 [CBK269662] | 106.134 |
| COc1cc2c(cc1C(C)c1ccc3c(c1)OCO3)OCO2 (stereo not drawn) [CBK200107] | 63.9998 |
| CC(=O)N1CCc2c([nH]c3cc(F)ccc23)C12CCN(CCC#N)CC2 [CBK039692] | 83.2505 |
| COC(=O)COc1nccnc1-c1ccc(C)c(C)c1 [CBK106871] | 74.0712 |
| CCOc1ccc(CNc2ccc(CNc3ncn[nH]3)cc2)cc1 [CBK267617] | 96.5683 |
| Cc1cc(=O)[nH]c(-n2nc(C)cc2NC(=O)c2ccccc2C)n1 [CBK287654] | 78.905 |
| CC12CN3CCN(CC(C3)C1(O)CN1CCOCC1)C2 (stereo not drawn) [CBK263033] | 92.0226 |
| C(=N\Nc1nc2ccccc2[nH]1)/c1cccs1 [CBK025417] | 33.2949 |
| CCCC(=O)Nc1ccc(OCc2cnccn2)c(C(C)=O)c1 [CBK304766] | 77.9136 |
| Cc1cc(-c2cnc(N)nc2)cc(C2CCCN(S(=O)(=O)c3ccc(F)c(C)c3)C2)n1 (stereo not drawn) [CBK285934] | 104.42 |
| O=C(NCc1cccnc1)N1CCCC(CO)C1 (stereo not drawn) [CBK156037] | 99.2058 |
